Measurements taken from the CheMixHub viscosity set.
Values joined by “and” are separate entries in the source; they are usually repeats but may differ in a detail not shown here. Equal values may be shown once. Further values from the same series stand in other lists.

Experiment: xn = mol fraction of the nth substance listed

CC(C)=O + O
Conditions | viscosity
293.15 K, 101 kPa, x1 = 0.01 | 1.089 mPa·s
293.15 K, 101 kPa, x1 = 0.02 | 1.152 mPa·s
293.15 K, 101 kPa, x1 = 0.0251 | 1.199 mPa·s
293.15 K, 101 kPa, x1 = 0.04 | 1.306 mPa·s
293.15 K, 101 kPa, x1 = 0.0587 | 1.408 mPa·s
293.15 K, 101 kPa, x1 = 0.06 | 1.426 mPa·s
293.15 K, 101 kPa, x1 = 0.1 | 1.547 mPa·s
293.15 K, 101 kPa, x1 = 0.1463 | 1.583 mPa·s
293.15 K, 101 kPa, x1 = 0.1807 | 1.549 mPa·s
293.15 K, 101 kPa, x1 = 0.2525 | 1.378 mPa·s
293.15 K, 101 kPa, x1 = 0.3055 | 1.225 mPa·s
293.15 K, 101 kPa, x1 = 0.477 | 0.827 mPa·s
293.15 K, 101 kPa, x1 = 0.484 | 0.7762 mPa·s
293.15 K, 101 kPa, x1 = 0.582 | 0.6233 mPa·s
293.15 K, 101 kPa, x1 = 0.63 | 0.5528 mPa·s
293.15 K, 101 kPa, x1 = 0.775 | 0.4213 mPa·s
293.15 K, 101 kPa, x1 = 0.892 | 0.3534 mPa·s
293.15 K, 101 kPa, x1 = 0.901 | 0.3528 mPa·s
293.15 K, 101 kPa, x2 = 0.008 | 0.3207 mPa·s
298 K, 101.3 kPa, x1 = 0.033 | 1.092 mPa·s
298 K, 101.3 kPa, x1 = 0.072 | 1.272 mPa·s
298 K, 101.3 kPa, x1 = 0.12 | 1.358 mPa·s
298 K, 101.3 kPa, x1 = 0.17 | 1.345 mPa·s
298 K, 101.3 kPa, x1 = 0.24 | 1.228 mPa·s
298 K, 101.3 kPa, x1 = 0.32 | 1.036 mPa·s
298 K, 101.3 kPa, x1 = 0.42 | 0.814 mPa·s
298.15 K, 101 kPa, x1 = 0.01 | 0.962 mPa·s
298.15 K, 101 kPa, x1 = 0.02 | 1.012 mPa·s
298.15 K, 101 kPa, x1 = 0.0292 | 1.079 mPa·s
298.15 K, 101 kPa, x1 = 0.033 | 1.121 mPa·s
298.15 K, 101 kPa, x1 = 0.04 | 1.142 mPa·s
298.15 K, 101 kPa, x1 = 0.0499 | 1.216 mPa·s
298.15 K, 101 kPa, x1 = 0.0583 | 1.227 mPa·s
298.15 K, 101 kPa, x1 = 0.06 | 1.238 mPa·s
298.15 K, 101 kPa, x1 = 0.0702 | 1.298 mPa·s
298.15 K, 101 kPa, x1 = 0.072 | 1.29 mPa·s
298.15 K, 101 kPa, x1 = 0.0913 | 1.329 mPa·s
298.15 K, 101 kPa, x1 = 0.1 | 1.371 mPa·s and 1.342 mPa·s
298.15 K, 101 kPa, x1 = 0.1025 | 1.377 mPa·s
298.15 K, 101 kPa, x1 = 0.12 | 1.395 mPa·s and 1.336 mPa·s
298.15 K, 101 kPa, x1 = 0.1457 | 1.373 mPa·s
298.15 K, 101 kPa, x1 = 0.1499 | 1.398 mPa·s
298.15 K, 101 kPa, x1 = 0.17 | 1.325 mPa·s
298.15 K, 101 kPa, x1 = 0.1701 | 1.382 mPa·s
298.15 K, 101 kPa, x1 = 0.185 | 1.351 mPa·s
298.15 K, 101 kPa, x1 = 0.1999 | 1.339 mPa·s
298.15 K, 101 kPa, x1 = 0.2014 | 1.309 mPa·s
298.15 K, 101 kPa, x1 = 0.22 | 1.299 mPa·s
298.15 K, 101 kPa, x1 = 0.24 | 1.24 mPa·s
298.15 K, 101 kPa, x1 = 0.2499 | 1.235 mPa·s
298.15 K, 101 kPa, x1 = 0.2508 | 1.212 mPa·s
298.15 K, 101 kPa, x1 = 0.2701 | 1.186 mPa·s
298.15 K, 101 kPa, x1 = 0.3001 | 1.113 mPa·s
298.15 K, 101 kPa, x1 = 0.301 | 1.089 mPa·s
298.15 K, 101 kPa, x1 = 0.31 | 1.067 mPa·s
298.15 K, 101 kPa, x1 = 0.32 | 1.083 mPa·s
298.15 K, 101 kPa, x1 = 0.3499 | 0.9885 mPa·s
298.15 K, 101 kPa, x1 = 0.4 | 0.8757 mPa·s
298.15 K, 101 kPa, x1 = 0.42 | 0.8365 mPa·s
298.15 K, 101 kPa, x1 = 0.4502 | 0.7742 mPa·s
298.15 K, 101 kPa, x1 = 0.462 | 0.7527 mPa·s
298.15 K, 101 kPa, x1 = 0.465 | 0.737 mPa·s
298.15 K, 101 kPa, x1 = 0.5001 | 0.6861 mPa·s
298.15 K, 101 kPa, x1 = 0.535 | 0.626 mPa·s
298.15 K, 101 kPa, x1 = 0.538 | 0.6247 mPa·s
298.15 K, 101 kPa, x1 = 0.55 | 0.6261 mPa·s
298.15 K, 101 kPa, x1 = 0.6 | 0.5446 mPa·s
298.15 K, 101 kPa, x1 = 0.616 | 0.524 mPa·s and 0.5104 mPa·s
298.15 K, 101 kPa, x1 = 0.7 | 0.4407 mPa·s
298.15 K, 101 kPa, x1 = 0.729 | 0.424 mPa·s
298.15 K, 101 kPa, x1 = 0.74 | 0.4509 mPa·s
298.15 K, 101 kPa, x1 = 0.775 | 0.3964 mPa·s
298.15 K, 101 kPa, x1 = 0.7999 | 0.3658 mPa·s
298.15 K, 101 kPa, x1 = 0.849 | 0.352 mPa·s
298.15 K, 101 kPa, x1 = 0.864 | 0.345 mPa·s
298.15 K, 101 kPa, x1 = 0.894 | 0.3355 mPa·s
298.15 K, 101 kPa, x1 = 0.9 | 0.3097 mPa·s
298.15 K, 101 kPa, x1 = 0.902 | 0.332 mPa·s
298.15 K, 101 kPa, x1 = 0.93 | 0.32 mPa·s
298.15 K, 101 kPa, x1 = 0.962 | 0.306 mPa·s
298.15 K, 101 kPa, x2 = 0.008 | 0.303 mPa·s
303.15 K, 101 kPa, x1 = 0.01 | 0.858 mPa·s
303.15 K, 101 kPa, x1 = 0.02 | 0.898 mPa·s
303.15 K, 101 kPa, x1 = 0.0201 | 0.932 mPa·s
303.15 K, 101 kPa, x1 = 0.04 | 1.007 mPa·s
303.15 K, 101 kPa, x1 = 0.0499 | 1.073 mPa·s
303.15 K, 101 kPa, x1 = 0.06 | 1.083 mPa·s
303.15 K, 101 kPa, x1 = 0.0702 | 1.143 mPa·s
303.15 K, 101 kPa, x1 = 0.1 | 1.206 mPa·s and 1.173 mPa·s
303.15 K, 101 kPa, x1 = 0.12 | 1.217 mPa·s
303.15 K, 101 kPa, x1 = 0.1499 | 1.219 mPa·s
303.15 K, 101 kPa, x1 = 0.1701 | 1.211 mPa·s
303.15 K, 101 kPa, x1 = 0.1999 | 1.176 mPa·s
303.15 K, 101 kPa, x1 = 0.22 | 1.143 mPa·s
303.15 K, 101 kPa, x1 = 0.2499 | 1.089 mPa·s
303.15 K, 101 kPa, x1 = 0.2701 | 1.049 mPa·s
303.15 K, 101 kPa, x1 = 0.3001 | 0.988 mPa·s
303.15 K, 101 kPa, x1 = 0.3499 | 0.883 mPa·s
303.15 K, 101 kPa, x1 = 0.4 | 0.7871 mPa·s
303.15 K, 101 kPa, x1 = 0.4502 | 0.7003 mPa·s
303.15 K, 101 kPa, x1 = 0.5001 | 0.6244 mPa·s
303.15 K, 101 kPa, x1 = 0.6 | 0.5015 mPa·s
303.15 K, 101 kPa, x1 = 0.7 | 0.4109 mPa·s
303.15 K, 101 kPa, x1 = 0.7999 | 0.3442 mPa·s
303.15 K, 101 kPa, x1 = 0.9 | 0.2899 mPa·s
303.15 K, 101.33 kPa, x1 = 0.1218 | 1.162 mPa·s
303.15 K, 101.33 kPa, x1 = 0.172 | 1.116 mPa·s
303.15 K, 101.33 kPa, x1 = 0.3122 | 0.9287 mPa·s
303.15 K, 101.33 kPa, x1 = 0.3681 | 0.8397 mPa·s
303.15 K, 101.33 kPa, x1 = 0.6042 | 0.526 mPa·s
303.15 K, 101.33 kPa, x1 = 0.7697 | 0.416 mPa·s
308.15 K, 101 kPa, x1 = 0.01 | 0.771 mPa·s
308.15 K, 101 kPa, x1 = 0.02 | 0.805 mPa·s
308.15 K, 101 kPa, x1 = 0.0201 | 0.8343 mPa·s
308.15 K, 101 kPa, x1 = 0.04 | 0.9 mPa·s
308.15 K, 101 kPa, x1 = 0.06 | 0.959 mPa·s
308.15 K, 101 kPa, x1 = 0.1 | 1.034 mPa·s
310.95 K, 101 kPa, x1 = 0.0297 | 0.8054 mPa·s
310.95 K, 101 kPa, x1 = 0.0912 | 0.9643 mPa·s
310.95 K, 101 kPa, x1 = 0.1447 | 0.9943 mPa·s
310.95 K, 101 kPa, x1 = 0.1905 | 0.9646 mPa·s
310.95 K, 101 kPa, x1 = 0.242 | 0.8974 mPa·s
310.95 K, 101 kPa, x1 = 0.299 | 0.8193 mPa·s
310.95 K, 101 kPa, x1 = 0.456 | 0.5963 mPa·s
310.95 K, 101 kPa, x1 = 0.538 | 0.5054 mPa·s
310.95 K, 101 kPa, x1 = 0.639 | 0.4241 mPa·s
310.95 K, 101 kPa, x1 = 0.776 | 0.3407 mPa·s
310.95 K, 101 kPa, x1 = 0.905 | 0.2934 mPa·s
310.95 K, 101 kPa, x2 = 0.008 | 0.2692 mPa·s
313.15 K, 101.33 kPa, x1 = 0.1218 | 0.8966 mPa·s
313.15 K, 101.33 kPa, x1 = 0.172 | 0.8596 mPa·s
313.15 K, 101.33 kPa, x1 = 0.3122 | 0.7082 mPa·s
313.15 K, 101.33 kPa, x1 = 0.3681 | 0.6751 mPa·s
313.15 K, 101.33 kPa, x1 = 0.6042 | 0.4571 mPa·s
313.15 K, 101.33 kPa, x1 = 0.7697 | 0.3565 mPa·s
323.15 K, 101.33 kPa, x1 = 0.1218 | 0.7087 mPa·s
323.15 K, 101.33 kPa, x1 = 0.173 | 0.6847 mPa·s
323.15 K, 101.33 kPa, x1 = 0.3122 | 0.6027 mPa·s
323.15 K, 101.33 kPa, x1 = 0.3681 | 0.5547 mPa·s
323.15 K, 101.33 kPa, x1 = 0.6042 | 0.4055 mPa·s
323.15 K, 101.33 kPa, x1 = 0.7697 | 0.3421 mPa·s
